Patent US10294228B2, “Breathing control modulating compounds, and methods of making and using same” (NEURAD LTD., priority 2015, dated 2019)
Structures can show the parent of a compound that is named as a salt. At least one read-out could not be matched to a standard name with certainty.

System: anesthetized rats
Assay: Anesthetized rat spirometry screening assay (ventilatory activity, minute volume)
Format: in vivo
Settings: ratio compared to N-(2,6-Bis-propylamino-pyrimidin-4-yl)-O,N-dimethyl-hydroxylamine hydrogen sulfate; for Peak ratio @ 0.3 dose*: 0.3 mg/kg IV; for Peak ratio @ 3.0 dose *: 3.0 mg/kg IV
Procedure: Anesthetized rats provide a quick method of screening compounds for respiratory and cardiovascular activity.
Rats were initially anesthetized with 3% isoflurane (inhaled) and femoral artery and vein cannulas were surgically inserted. Once cannulated, the rats were transitioned to urethane anesthesia (1.5 g/kg; i.v.) and a tracheal cut-down was performed. After placing the tracheal cannula, it was connected to a pneumotachometer to record respiratory airflow from which respiratory rate (RR), tidal volume (VT), and their product minute volume (MV, also termed VE) were derived. After the surgical preparation was complete, animals were allowed to stabilize for 30 minutes while respiratory rate, tidal volume, minute volume, blood pressure and heart rate were recorded continuously. Arterial blood gases (ABG) were obtained from arterial blood collected from the femoral artery. ABG measurements were taken before and 6 minutes after vehicle and each dose of compound administered. Compounds being screened were administered via bolus injections through the venous cannula followed by a saline flush (total time of administration is approximately 30 seconds), and the animal was monitored for at least 6 minutes for changes in cardiovascular efforts. Compounds were prepared in formulations identified to ensure optimal solubility. As such, vehicle controls were matched for the formulation of each compound tested. Dosing of the compounds being screened was conducted at 0.1 and/or 0.3 mg/kg and/or 3 mg/kg The next dose was not administered until all cardiovascular and respiratory measures had returned to baseline levels. The positive control compounds used were N-[4,6-di-(n-propylamino)-[1,3,5]triazin-2-yl]-N,O-dimethyl-hydroxylamine or N-[2,6-di-(n-propylamino)-[1,3]pyrimidin-4-yl]-N,O-dimethyl-hydroxylamine (both administered at the end of each screening experiment (0.3 mg/kg dose) to validate the experiment and also to serve as a measure with which the compound being screened could be compared.
Data were analyzed by collecting cardiovascular and respiratory data in 30 second averages (BINs). Data were plotted 2 minutes before challenge and then 6 minutes after challenge.

Row | Compound | Peak ratio @ 0.3 dose* | Peak ratio @ 3.0 dose *
1 | CCCNc1nc(NC)c2nc(N[C@@H]3c4ccccc4C[C@@H]3O)nc(NC)c2n1 [Compound 123, (1R,2S)-1-(4,8-Bis-methylamino-6-propylamino-pyrimido[5,4-d]-pyrimidin-2-ylamino)-indan-2-ol] | 0.07 | 0.87
2 | CCCNc1nc(NCC)c2nc(NC[C@@H](C)O)nc(NCC)c2n1 [Compound 169, (R)-1-(4,8-Bis-ethylamino-6-propylamino-pyrimido[5,4-d]-pyrimidin-2-ylamino)-propan-2-ol] | 0.88 | 1.10
3 | CCCNc1nc(NC)nc2c(N[C@H]3c4ccccc4C[C@@H]3O)nc(NC)nc12 [Compound 78, (1S,2S)-1-(2,6-Bis-methylamino-8-propylamino-pyrimido[5,4-d]-pyrimidin-4-ylamino)-indan-2-ol] | 0.79 | 0.82
4 | CCCNc1nc(NC)c2nc(NC[C@@H](C)O)nc(NC)c2n1 [Compound 115, (R)-1-(4,8-Bis-methylamino-6-propylamino-pyrimido[5,4-d]pyrimidin-2-ylamino)-propan-2-ol] | 0.33 | 0.83
5 | CCNc1nc(NC)nc2c(NCCCO)nc(NC)nc12 [Compound 67a, 3-(8-Ethylamino-2,6-bis-methylamino-pyrimido[5,4-d]-pyrimidin-4-ylamino)-propan-1-ol Hydrochloride] | 0.04 | 0.74
6 | CNc1nc(NC[C@H](C)O)nc2c(NC)nc(NCC3CC3)nc12 [Compound 142, (S)-1-[6-(Cyclopropylmethyl-amino)-4,8-bis-methylamino-pyrimido[5,4-d]pyrimidin-2-ylamino]-propan-2-ol] | 0.01 | 0.45
7 | CCCNc1nc(NC)c2nc(N(C)CC(C)O)nc(NC)c2n1 (stereo not shown) [Compound 97, 1-[(4,8-Bis-methylamino-6-propylamino-pyrimido[5,4-d]pyrimidin-2-yl)-methyl-amino]-propan-2-ol] | 0.26 | 0.75
8 | CCCNc1nc(NC)nc2c(NCC(C)O)nc(NC)nc12 (stereo not shown) [Compound 10a, 1-(2,6-Bis-methylamino-8-propylamino-pyrimido[5,4-d]-pyrimidin-4-ylamino)-propan-2-ol hydrochloride] | 0.47 | 
9 | CCCNc1nc(NC)c2nc(NCC(O)C(F)(F)F)nc(NC)c2n1 (stereo not shown) [Compound 111, 3-(4,8-Bis-methylamino-6-propylamino-pyrimido[5,4-d]pyrimidin-2-ylamino)-1,1,1-trifluoro-propan-2-ol] | 0.15 | 0.90
10 | CCNc1nc(NC[C@@H](C)O)nc2c(NCC)nc(N)nc12 [Compound 171, (R)-1-(6-Amino-4,8-bis-ethylamino-pyrimido[5,4-d]-pyrimidin-2-ylamino)-propan-2-ol] | 0.08 | 0.84
11 | CCCNc1nc(NC)nc2c(NCC(O)C(F)(F)F)nc(NC)nc12 (stereo not shown) [Compound 22a, 3-(2,6-Bis-methylamino-8-propylamino-pyrimido[5,4-d]pyrimidin-4-ylamino)-1,1,1-trifluoro-propan-2-ol Hydrochloride] | 0.85 | 
12 | C=CCNc1nc(NC)c2nc(N(C)C[C@H](C)O)nc(NC)c2n1 [Compound 156, (S)-1-[(6-Allylamino-4,8-bis-methylamino-pyrimido[5,4-d]pyrimidin-2-yl)-methyl-amino]-propan-2-ol] | 0.11 | 0.68
13 | CCCNc1nc(NC)nc2c(N[C@H]3CCC[C@@H]3O)nc(NC)nc12 [Compound 86, (1S,2S)-2-(2,6-Bis-methylamino-8-propylamino-pyrimido[5,4-d]pyrimidin-4-ylamino)-cyclopentanol] | 0.20 | 0.78
14 | CCCNc1nc(NC)nc2c(N[C@@H]3CCC[C@H]3O)nc(NC)nc12 [Compound 87, (1R,2R)-2-(2,6-Bis-methylamino-8-propylamino-pyrimido[5,4-d]pyrimidin-4-ylamino)-cyclopentanol] | 0.17 | 0.57
15 | CCCNc1nc(NCC)c2nc(NCCO)nc(NCC)c2n1 [Compound 162, 2-(4,8-Bis-ethylamino-6-propylamino-pyrimido[5,4-d]pyrimidin-2-ylamino)-ethanol] | 0.88 | 1.01
16 | CCCNc1nc(NC)c2nc(N[C@@H]3CCC[C@H]3O)nc(NC)c2n1 [Compound 141, (1R,2R)-2-(4,8-Bis-methylamino-6-propylamino-pyrimido[5,4-d]pyrimidin-2-ylamino)-cyclopentanol] | 0.32 | 0.67
17 | CNc1nc(NCC2CC2)nc2c(NC)nc(NCCO)nc12 [Compound 90, 2-[6-(Cyclopropylmethyl-amino)-4,8-bis-methylamino-pyrimido[5,4-d]pyrimidin-2-ylamino]-ethanol] | 0.16 | 
18 | CCCNc1nc(NC)nc2c(N(C)CC(C)O)nc(NC)nc12 (stereo not shown) [Compound 73a, 1-[(2,6-Bis-methylamino-8-propylamino-pyrimido[5,4-d]-pyrimidin-4-yl)-methyl-amino]-propan-2-ol Hydrochloride] | 0.11 | 0.53
19 | CCCNc1nc(NC)c2nc(N[C@H]3c4ccccc4C[C@H]3O)nc(NC)c2n1 [Compound 127, (1S,2R)-1-(4,8-Bis-methylamino-6-propylamino-pyrimido[5,4-d]-pyrimidin-2-ylamino)-indan-2-ol] | 0.48 | 0.64
20 | C=CCNc1nc(NC)c2nc(N(CCC)C[C@H](C)O)nc(NC)c2n1 [Compound 155, (S)-1-[(6-Allylamino-4,8-bis-methylamino-pyrimido[5,4-d]-pyrimidin-2-yl)-propyl-amino]-propan-2-ol] | 0.05 | 0.30
21 | CCCNc1nc(NC)nc2c(NC3Cc4ccccc4C3O)nc(NC)nc12 (racemic) [Compound 81, 2-(2,6-Bis-methylamino-8-propylamino-pyrimido[5,4-d]-pyrimidin-4-ylamino)-indan-1-ol] | 0.41 | 0.60
22 | CC[C@@H](C)Nc1nc(NC)nc2c(NCC(C)(C)O)nc(NC)nc12 [Compound 40a, 1-[8-((R)-sec-Butylamino)-2,6-bis-methylamino-pyrimido[5,4-d]-pyrimidin-4-ylamino]-2-methyl-propan-2-ol Hydrochloride] | 0.64 | 1.28
23 | C=C(C)CNc1nc(NC)c2nc(NC[C@@H](C)O)nc(NC)c2n1 [Compound 158, (R)-1-[6-(2-Methyl-allylamino)-4,8-bis-methylamino-pyrimido[5,4-d]-pyrimidin-2-ylamino]-propan-2-ol] | 0.44 | 0.78
24 | CCCNc1nc(NC)c2nc(NCCO)nc(NC)c2n1 [Compound 91, 2-(4,8-Bis-methylamino-6-propylamino-pyrimido[5,4-d]pyrimidin-2-ylamino)-ethanol] | 0.12 | 
25 | CCCNc1nc(NC)c2nc(NCC(O)CC)nc(NC)c2n1 (stereo not shown) [Compound 117, 1-(4,8-Bis-methylamino-6-propylamino-pyrimido[5,4-d]pyrimidin-2-ylamino)-butan-2-ol] | 0.82 | 0.88
